{"source": "PubChem BioAssay AID652106", "about": "(National Center for Advancing Translational Sciences (NCATS), 2013)", "note": "In all, about 370,000 compounds went through this assay and about 500 (0.14%) were called active. Inconclusive means that the source gave no clear call. Such entries were picked first, then a sample of the others. The call rests on the fitted dose curve; in most records, active means well fitted activation curve with a large enough effect; inconclusive means small, poorly fitted or top-dose-only effect; inactive means no such curve, though single readings can be large or run the other way. No potency is given beside an inconclusive call; the fits are too rough. Potency means the concentration at half of the fitted maximal effect; tags describe the fitted curve by direction and shape.", "data": [{"assay": "qHTS of alpha-syn Inhibitors; further: nearly all actives have a fitted effect of over 65% in size; on growth rescue (activation): % of control where 0% means no effect", "conditions": "Yeast expressing alpha-synuclein, BacTiter-Glo, 24 h; Potency: growth rescue unless noted; growth rescue (activation): at 46.1 µM (top of the series) unless noted", "how_it_was_run": "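Readout is rescue of growth in alpha-synuclein-expressing yeast, so inhibitors of toxicity appear as activators. Growth after 24 hr at 30 deg C in galactose medium is quantified by luminescence.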", "values": [{"smiles": "CN1/C(=C\\C(=O)COC(=O)c2ccccc2O)C(C)(C)c2ccccc21", "growth rescue (activation)": "inactive: -26.5%"}, {"smiles": "Cc1cccc(Nc2nc(N3CCOCC3)nc(N3CCOCC3)n2)c1", "growth rescue (activation)": "inactive: 0.814%"}, {"smiles": "COc1cccc(N2CCN(C(=O)c3cc4cc(Cl)ccc4[nH]3)CC2)c1", "Potency": "inconclusive [activator, single point]"}, {"smiles": "N#Cc1ccc(NC(=S)NC(=O)C2CC2)cc1", "Potency": "inconclusive [activator, single point]"}, {"smiles": "Cc1sc(N)c(C(=O)c2ccccc2Cl)c1C", "Potency": "inconclusive [activator, single point]"}, {"smiles": "CC(C)(C(=O)N1CCC1(C)C(=O)NS(=O)(=O)c1cccc(C#N)c1)c1ccccc1", "note": "(configuration not stated)", "Potency": "inconclusive [activator, single point]"}, {"smiles": "COC(=O)c1cc(Cl)cc2c(C)c(C3(O)CCCCC3)[nH]c12", "Potency": "inconclusive [activator, single point]"}, {"smiles": "Cc1ccc(-c2csc(C(O)c3ccccc3)n2)cc1C", "note": "(configuration not stated)", "Potency": "inconclusive [activator, partial curve]"}, {"smiles": "O=C(Cc1ccc(-c2ccccc2)cc1)NCc1ccccc1", "Potency": "inconclusive [activator, single point]"}, {"smiles": "COc1cc(C(O)c2nc(-c3ccccc3)cs2)ccc1F", "note": "(configuration not stated)", "Potency": "inconclusive [activator, partial curve]"}, {"smiles": "CCCc1sc(N/N=C/c2ccccn2)nc1-c1ccc(Br)cc1", "Potency": "inconclusive [activator, single point]"}, {"smiles": "CCOc1ccc(-n2ccnc2)nn1", "Potency": "inconclusive [activator, single point]"}, {"smiles": "C/C(CC(=O)Nc1ccc(Br)cc1)=N\\NC(=O)Cc1csc(N)n1", "Potency": "inconclusive [activator, single point]"}, {"smiles": "C#CCOc1c(Cl)cc(/C=C2/C(=O)ON=C2C)cc1OCC", "growth rescue (activation)": "inactive: 5.21%"}, {"smiles": "O=[N+]([O-])c1ccc(Cl)cc1N1CCCC1", "Potency": "inconclusive [activator, single point]"}, {"smiles": "COc1ccc(OCc2nc3ccccc3n2C(C)C)cc1", "Potency": "inconclusive [activator, single point]"}, {"smiles": "Cc1ccc(C2(C)CC(C)(C)N(C(=O)CSc3nnc(C)s3)c3ccccc32)cc1", "note": "(configuration not stated)", "growth rescue (activation)": "inactive: 0.357%"}, {"smiles": "Cc1c(CCC(=O)O)c(=O)oc2cc3occ(-c4ccccc4)c3cc12", "Potency": "inconclusive [activator, partial curve]"}, {"smiles": "OC[C@@H]1CN(Cc2ccc(Cl)cc2)C[C@H](n2cnc3c(Nc4ccccc4)ncnc32)O1", "Potency": "inconclusive [activator, single point]"}, {"smiles": "Cc1cc(Br)c(Cl)cc1NC(=O)CN1C(=O)C2C3CC(c4ccccc4)C(C3)C2C1=O", "note": "(configuration not stated)", "Potency": "inconclusive [activator, single point]"}, {"smiles": "COc1ccc(CN(C)C[C@@H]2OCCCC[C@H](C)Oc3ccc(NC(=O)Cc4ccccc4)cc3C(=O)N([C@@H](C)CO)C[C@@H]2C)cc1", "Potency": "inconclusive [activator, single point]"}, {"smiles": "CN(CC(=O)Nc1cccc(Cl)c1)S(=O)(=O)/C=C/c1ccccc1", "Potency": "inconclusive [activator, single point]"}, {"smiles": "Cc1sc(NC(=O)c2ccco2)c(C(c2cccnc2)N2CCN(c3ccc(F)cc3)CC2)c1C", "note": "(configuration not stated)", "Potency": "inconclusive [activator, single point]"}, {"smiles": "CCOC(=O)N1CCC(N2C(=O)c3ccc(C(=O)NCc4ccc(F)cc4)cc3C2=O)CC1", "Potency": "inconclusive [activator, single point]"}, {"smiles": "Cc1cccc(N2CCN(C(=O)CN3CCOc4ccccc43)CC2C)c1", "note": "(configuration not stated)", "Potency": "inconclusive [activator, single point]"}, {"smiles": "Cc1cccc(-n2c(CCc3ccccc3)nnc2SCC(=O)c2ccccc2)c1", "Potency": "inconclusive [activator, single point]"}, {"smiles": "COc1cc(/C=C/C(=O)c2ccc3c(c2)OCCO3)cc(OC)c1OC", "growth rescue (activation)": "inactive: 8.32%"}, {"smiles": "Cc1cc(N2CCOCC2)nc2ccc(NC(=O)C3CCC(C)CC3)cc12", "note": "(configuration not stated)", "growth rescue (activation)": "inactive: -9.2%"}, {"smiles": "Cc1onc(-c2c(F)cccc2Cl)c1C(=O)c1ccccc1", "growth rescue (activation)": "inactive: 16.8%"}, {"smiles": "COc1cccc(C(NC(C)=O)c2ccc3cccnc3c2O)c1", "note": "(configuration not stated)", "Potency": "inconclusive [activator, single point]"}, {"smiles": "CCOC(=O)C1=C(C)N=c2sc(=Cc3cc(Cl)c(OCC(=O)O)c(OC)c3)c(=O)n2C1c1ccccc1Cl", "note": "(configuration not stated)", "Potency": "inconclusive [activator, single point]"}, {"smiles": "CCc1nnc(NC(=O)CSc2nnc(-c3ccco3)n2CCOC)s1", "growth rescue (activation)": "inactive: 0.727%"}, {"smiles": "COc1ccc(OC)c(S(=O)(=O)N(C)CC(=O)Nc2cc(Cl)ccc2OC)c1", "Potency": "inconclusive [activator, single point]"}, {"smiles": "COc1ccc2c(c1)C(C)=CC(C)(C)N2C(=O)CSc1nnc(-c2ccc(C)cc2)o1", "growth rescue (activation)": "inconclusive: 59.1% [activator]"}, {"smiles": "CCCc1nc2ccc(NC(C)=O)cc2c(=O)n1Cc1ccccc1Cl", "growth rescue (activation)": "inactive: -1.37%"}, {"smiles": "Cn1c(SCC(=O)Nc2ccc(Cl)cc2F)nnc1-c1ccco1", "Potency": "active: 2.82 µM"}, {"smiles": "COc1ccccc1Oc1nc(-c2ccccc2)cc(C)c1S(C)(=O)=O", "growth rescue (activation)": "inactive: -4.5%"}, {"smiles": "CC(C)(C)c1ccc(CC(=O)N2CCC2(C)C(=O)NCCC#N)cc1", "note": "(configuration not stated)", "Potency": "inconclusive [activator, single point]"}, {"smiles": "CC1CCN(c2nc(-c3ccncc3)nc3ccccc23)CC1", "Potency": "inconclusive [activator, partial curve]"}, {"smiles": "O=C(C[C@H]1CC[C@H]2[C@@H](COC[C@@H](O)CN2S(=O)(=O)c2ccc(F)cc2)O1)N[C@@H]1CCN(Cc2ccccc2)C1", "growth rescue (activation)": "inactive: 8.02%"}, {"smiles": "COCCNC(=S)N(CCc1c(C)[nH]c2ccc(F)cc12)Cc1cccs1", "Potency": "inconclusive [activator, single point]"}, {"smiles": "O=C(CSc1ncccn1)NCc1ccccc1Cl", "Potency": "inconclusive [activator, single point]"}, {"smiles": "FCCCOc1ccc(-c2ccnc3ncnn23)cc1", "growth rescue (activation)": "inactive: 3.54%"}, {"smiles": "CCOC(=O)[C@@H]1[C@H]2COc3ccccc3[C@@H]2N2C(=O)N(c3ccc(OC)cc3)C(=O)[C@@]12C", "Potency": "inconclusive [activator, single point]"}, {"smiles": "CCCNC(=S)N1CCC(C(=O)c2ccc(F)cc2)CC1", "growth rescue (activation)": "inactive: 3.23%"}, {"smiles": "O=C(Nc1ccccc1C(F)(F)F)c1nc(S(=O)(=O)Cc2ccccc2F)ncc1Cl", "growth rescue (activation)": "inactive: -67.1%"}, {"smiles": "CC1(C)CC(=O)c2cc(C(=O)NC3CCSC3=O)c(=O)n(-c3ccccc3)c2C1", "note": "(configuration not stated)", "growth rescue (activation)": "inactive: 1.54%"}, {"smiles": "O=C(Oc1c(Cl)cc(Cl)c2cccnc12)c1ccco1", "Potency": "active: 3.55 µM"}, {"smiles": "O=C(Nc1nnc(C2=COCCO2)o1)c1cccc(Br)c1", "Potency": "inconclusive [activator, single point]"}, {"smiles": "COCCNC(=S)N(CCc1c(C)[nH]c2ccc(F)cc12)Cc1ccc(C)cc1", "Potency": "inconclusive [activator, single point]"}, {"smiles": "O=C1N2CCCCC1(Sc1ccccc1)CCC2", "note": "(configuration not stated)", "Potency": "inconclusive [activator, single point]"}, {"smiles": "O=C(Cc1ccc(F)cc1)NO", "growth rescue (activation)": "inactive: 2.25%"}, {"smiles": "CC(C)CC(=O)NC(=S)NNC(=O)c1ccc([N+](=O)[O-])cc1", "Potency": "inconclusive [activator, single point]"}, {"smiles": "O=C(COc1ccccc1C(=O)Nc1ccccc1)Nc1ccc2ccccc2c1", "Potency": "inconclusive [activator, single point]"}, {"smiles": "COc1cc(NC(=O)COC(=O)CO/N=C(\\C)c2ccc3c(c2)OCO3)cc(OC)c1OC", "Potency": "inconclusive [activator, single point]"}, {"smiles": "Fc1c(F)c(C(F)(F)F)c(F)c(F)c1N/N=C\\c1cccs1", "growth rescue (activation)": "inactive: -30.2%"}, {"smiles": "COc1ccc(NC(=O)CSCC(=O)N(C)Cc2ccc(Cl)c(Cl)c2)cc1", "Potency": "inconclusive [activator, single point]"}, {"smiles": "COc1ccc(/C=C/c2ccc3c(Br)ccc(O)c3n2)cc1", "Potency": "inconclusive [activator, single point]"}, {"smiles": "CCOC(=O)c1c(Nc2ccc(O)cc2)nnc(-c2ccccc2)c1-c1ccccc1", "growth rescue (activation)": "inactive: -4.55%"}, {"smiles": "Cc1[nH]c2ccccc2c1C(=O)C(=O)N1CCN(c2cccc(Cl)c2)CC1", "Potency": "inconclusive [activator, single point]"}, {"smiles": "CC(=O)c1ccc(NC(=S)N2CCN(CCO)CC2)cc1", "Potency": "inconclusive [activator, single point]"}, {"smiles": "CC(C)Cc1nc(N2CCN(C(=O)c3ccco3)CC2)c(C#N)c2c1CCCC2", "growth rescue (activation)": "inactive: -12.4%"}, {"smiles": "C(=C\\c1ccccc1)/CSc1nnc(-c2cccnc2)o1", "Potency": "inconclusive [activator, partial curve]"}, {"smiles": "COc1cccc(N=Nc2ccc3cccnc3c2O)c1", "Potency": "inconclusive [activator, single point]"}, {"smiles": "O=C(C(c1ccccc1)c1ccccc1)N1CC[C@@]2(O)CCCC[C@H]2C1", "growth rescue (activation)": "inactive: 0.514%"}, {"smiles": "O=c1[nH]cnc2nc(-c3ccccc3)c(-c3ccccc3)nc12", "growth rescue (activation)": "inactive: 0.776%"}, {"smiles": "Cc1ccc(-c2cn3cc(C)ccc3n2)cc1", "Potency": "inconclusive [activator, single point]"}, {"smiles": "O=c1[nH][nH]c2c1[C@H](CCc1cccc(Cl)c1)O[C@H](C1CCCC1)C2", "growth rescue (activation)": "inactive: -32.8%"}, {"smiles": "Oc1cccc(-c2sc3ccccc3c2-c2ccc(OCCN3CCCCC3)cc2)c1", "growth rescue (activation)": "inactive: -52.2%"}, {"smiles": "C/C(=N\\OCC(=O)N/N=C/c1ccccc1O)c1cccs1", "Potency": "inconclusive [activator, partial curve]"}, {"smiles": "S=C1SCN(Cc2cccnc2)CN1Cc1ccccc1", "growth rescue (activation)": "inactive: -9.9%"}, {"smiles": "Cc1cc(C(=O)N2CCCC(C(=O)c3ccc(Cl)cc3C)C2)no1", "note": "(configuration not stated)", "growth rescue (activation)": "inactive: 8.32%"}]}]}
